Measured values from publication PMC12231567.
No constants are given. Whether binding was seen depends on the method and setting. For part of these data: In cells and extracts the contact can be indirect. Some entries that bind do so weakly or less than the wild type. Tags and fused reporters may be left off the sequences shown. Blank lines part the entries; values can stand above or below the binder they belong to.

Chains of the proteins cited; added tags and fusions are not shown.
UniProt Q94AH6: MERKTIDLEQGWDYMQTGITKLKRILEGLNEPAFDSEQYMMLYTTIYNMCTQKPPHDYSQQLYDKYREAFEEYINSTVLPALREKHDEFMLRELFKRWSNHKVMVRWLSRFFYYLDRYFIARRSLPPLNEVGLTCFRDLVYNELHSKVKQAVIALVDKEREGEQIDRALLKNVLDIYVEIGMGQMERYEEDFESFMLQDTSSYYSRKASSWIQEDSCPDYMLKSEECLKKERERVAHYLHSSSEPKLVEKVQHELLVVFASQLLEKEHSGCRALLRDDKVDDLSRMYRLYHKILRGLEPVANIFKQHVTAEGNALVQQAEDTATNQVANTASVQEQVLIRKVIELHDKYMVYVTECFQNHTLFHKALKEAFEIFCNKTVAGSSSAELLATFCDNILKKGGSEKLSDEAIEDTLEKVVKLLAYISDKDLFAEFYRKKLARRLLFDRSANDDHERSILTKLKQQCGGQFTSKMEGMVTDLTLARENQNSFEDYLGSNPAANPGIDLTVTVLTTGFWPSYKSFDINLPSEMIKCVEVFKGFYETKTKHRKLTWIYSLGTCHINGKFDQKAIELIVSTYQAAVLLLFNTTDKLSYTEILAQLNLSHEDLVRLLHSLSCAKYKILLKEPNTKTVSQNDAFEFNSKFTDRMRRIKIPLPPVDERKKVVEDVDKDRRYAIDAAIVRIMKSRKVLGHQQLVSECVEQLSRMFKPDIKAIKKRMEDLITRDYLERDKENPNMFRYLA

What was measured:
[1] = biological target: T1, CUL3 fused to a Venus fragment (BiFC) (Arabidopsis thaliana) (UniProt Q9ZVH4); assay: split reporter; BiFC in N. benthamiana leaves co-infiltrated with A. tumefaciens GV3101 carrying the VENn and VENc fusions (both directions) and HC-Pro; Venus fluorescence in nuclei; some combinations also scored after MG115
T1 sequence: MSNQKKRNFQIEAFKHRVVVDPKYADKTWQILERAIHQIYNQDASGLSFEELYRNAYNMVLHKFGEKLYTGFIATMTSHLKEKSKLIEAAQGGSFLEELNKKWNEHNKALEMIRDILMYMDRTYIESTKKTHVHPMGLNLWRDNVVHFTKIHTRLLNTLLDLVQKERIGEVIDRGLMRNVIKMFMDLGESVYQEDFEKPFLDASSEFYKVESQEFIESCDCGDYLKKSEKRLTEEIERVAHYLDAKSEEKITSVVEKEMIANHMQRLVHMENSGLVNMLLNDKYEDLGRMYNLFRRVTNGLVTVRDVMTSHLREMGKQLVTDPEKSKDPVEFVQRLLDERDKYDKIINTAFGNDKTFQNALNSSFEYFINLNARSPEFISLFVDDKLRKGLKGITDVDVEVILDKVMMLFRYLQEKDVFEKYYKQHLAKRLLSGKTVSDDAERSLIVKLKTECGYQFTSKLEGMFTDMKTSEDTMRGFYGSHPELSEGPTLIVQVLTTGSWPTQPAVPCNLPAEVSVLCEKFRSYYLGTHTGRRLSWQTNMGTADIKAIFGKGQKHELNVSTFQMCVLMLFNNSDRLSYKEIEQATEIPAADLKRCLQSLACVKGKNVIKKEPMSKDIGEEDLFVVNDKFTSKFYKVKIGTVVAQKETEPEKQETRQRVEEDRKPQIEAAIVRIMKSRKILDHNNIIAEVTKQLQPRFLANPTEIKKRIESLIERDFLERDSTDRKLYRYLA

[2] = biological target: CUL1 fused to a Venus fragment (BiFC) (Arabidopsis thaliana) (UniProt Q94AH6); assay: as above
[3] = biological target: T2, UBC19 fused to a Venus fragment (BiFC) (Arabidopsis thaliana) (UniProt Q9LJZ5); assay: as above
T2 sequence: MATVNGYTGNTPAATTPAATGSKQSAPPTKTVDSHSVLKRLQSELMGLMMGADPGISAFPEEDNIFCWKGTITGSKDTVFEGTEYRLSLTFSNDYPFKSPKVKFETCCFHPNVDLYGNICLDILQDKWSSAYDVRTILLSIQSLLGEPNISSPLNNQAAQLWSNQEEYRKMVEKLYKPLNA

[4] = biological target: T3, APC2 fused to a Venus fragment (BiFC) (Arabidopsis thaliana) (UniProt Q8H1U5); assay: as above
T3 sequence: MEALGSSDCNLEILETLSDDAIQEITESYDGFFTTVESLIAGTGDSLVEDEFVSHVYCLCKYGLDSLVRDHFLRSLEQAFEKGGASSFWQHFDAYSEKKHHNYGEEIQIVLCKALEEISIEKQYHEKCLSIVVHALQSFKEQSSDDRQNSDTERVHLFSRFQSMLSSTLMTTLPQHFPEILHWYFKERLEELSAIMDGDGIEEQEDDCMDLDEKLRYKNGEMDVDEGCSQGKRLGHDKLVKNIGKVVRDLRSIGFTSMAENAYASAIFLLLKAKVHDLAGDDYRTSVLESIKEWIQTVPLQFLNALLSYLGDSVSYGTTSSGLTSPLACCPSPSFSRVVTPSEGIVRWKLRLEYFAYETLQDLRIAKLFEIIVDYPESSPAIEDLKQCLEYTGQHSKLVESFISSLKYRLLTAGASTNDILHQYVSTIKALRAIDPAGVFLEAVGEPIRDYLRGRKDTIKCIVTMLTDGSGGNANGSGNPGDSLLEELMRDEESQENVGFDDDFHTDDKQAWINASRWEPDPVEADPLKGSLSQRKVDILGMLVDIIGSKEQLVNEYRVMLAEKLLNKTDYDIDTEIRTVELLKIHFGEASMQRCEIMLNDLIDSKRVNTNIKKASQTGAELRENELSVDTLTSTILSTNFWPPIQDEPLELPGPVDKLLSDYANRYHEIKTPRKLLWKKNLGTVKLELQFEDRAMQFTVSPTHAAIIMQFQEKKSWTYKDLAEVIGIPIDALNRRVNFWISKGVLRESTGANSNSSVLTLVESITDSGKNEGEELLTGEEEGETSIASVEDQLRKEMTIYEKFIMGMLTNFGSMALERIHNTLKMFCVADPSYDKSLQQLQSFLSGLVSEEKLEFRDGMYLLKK

[5] = biological target: T4, APC10 fused to a Venus fragment and HA (BiFC and Co-IP) (Arabidopsis thaliana) (UniProt Q9ZPW2); assay: as above
T4 sequence: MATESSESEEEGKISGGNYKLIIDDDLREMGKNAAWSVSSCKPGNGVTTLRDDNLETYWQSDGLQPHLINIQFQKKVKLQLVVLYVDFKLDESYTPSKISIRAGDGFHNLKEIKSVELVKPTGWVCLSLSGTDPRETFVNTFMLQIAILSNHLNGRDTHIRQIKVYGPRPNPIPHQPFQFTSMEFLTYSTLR

[6] = biological target: T5, CDC20.1 fused to a Venus fragment and HA (BiFC and Co-IP) (Arabidopsis thaliana) (UniProt Q9SZA4); assay: as above
T5 sequence: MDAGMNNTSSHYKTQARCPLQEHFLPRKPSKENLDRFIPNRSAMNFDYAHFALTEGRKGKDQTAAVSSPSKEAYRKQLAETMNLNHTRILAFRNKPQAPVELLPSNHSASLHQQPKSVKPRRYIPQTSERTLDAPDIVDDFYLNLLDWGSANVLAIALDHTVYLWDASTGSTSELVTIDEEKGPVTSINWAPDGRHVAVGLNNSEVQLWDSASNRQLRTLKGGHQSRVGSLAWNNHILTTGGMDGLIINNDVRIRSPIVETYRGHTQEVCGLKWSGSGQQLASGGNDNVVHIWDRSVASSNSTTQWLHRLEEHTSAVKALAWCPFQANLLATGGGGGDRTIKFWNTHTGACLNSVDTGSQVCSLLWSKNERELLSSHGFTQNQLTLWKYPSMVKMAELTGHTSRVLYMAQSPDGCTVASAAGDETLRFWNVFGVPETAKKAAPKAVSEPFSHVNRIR

[7] = biological target: T6, UBC20 fused to a Venus fragment (BiFC) (Arabidopsis thaliana) (UniProt Q8L7T3); assay: as above
T6 sequence: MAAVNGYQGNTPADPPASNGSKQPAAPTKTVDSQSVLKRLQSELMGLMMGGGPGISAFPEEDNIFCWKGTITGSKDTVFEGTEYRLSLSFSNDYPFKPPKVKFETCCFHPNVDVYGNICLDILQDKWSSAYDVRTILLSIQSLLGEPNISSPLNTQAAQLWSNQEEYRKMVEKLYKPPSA

[8] = biological target: T4, APC10 fused to a Venus fragment and HA (BiFC and Co-IP) (Arabidopsis thaliana); assay: co-IP; CDC20.1-HA or APC10-HA coexpressed with αKNL2-C-cMYC in N. benthamiana leaves; total protein extracts precipitated with HA magnetic beads; blot with anti-cMYC and anti-HA
[9] = biological target: T5, CDC20.1 fused to a Venus fragment and HA (BiFC and Co-IP) (Arabidopsis thaliana); assay: as above
[10] = biological target: T7, αKNL2-N (N-terminal fragment of αKNL2, 1 to 363 aa) fused to the GAL4 DNA-binding domain (Arabidopsis thaliana) (UniProt F4KCE9); assay: two-hybrid; cotransformation of pGBKT7 (BD, bait) and pGADT7 (AD, prey) into S. cerevisiae Y2H Gold; drop dilutions on -LT and -LTH (triple dropout) medium, 30 °C
T7 sequence: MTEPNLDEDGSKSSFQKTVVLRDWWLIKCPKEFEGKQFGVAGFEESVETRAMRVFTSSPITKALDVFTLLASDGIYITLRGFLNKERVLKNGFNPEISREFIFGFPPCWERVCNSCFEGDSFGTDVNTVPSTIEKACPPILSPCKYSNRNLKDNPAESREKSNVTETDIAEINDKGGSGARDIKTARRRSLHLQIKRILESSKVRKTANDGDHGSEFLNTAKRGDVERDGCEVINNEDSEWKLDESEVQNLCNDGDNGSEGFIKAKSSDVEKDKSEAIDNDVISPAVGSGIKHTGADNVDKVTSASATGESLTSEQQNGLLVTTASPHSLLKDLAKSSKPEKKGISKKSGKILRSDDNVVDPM

binding [1]: no binding
binding [2]: no binding
binding [3]: no binding
binding [4]: binds
binding [5]: binds
binding [6]: binds
binding [7]: no binding
binding [8]: binds
binding [9]: binds
B1: αKNL2-C (364 to 599 aa) fused to a Venus fragment and cMYC (BiFC and Co-IP) (domain or fragment, UniProt F4KCE9 364-598)
chain: NYSGTKVKSAENKRKIDASKLQSPTSNVAEHSKEGLNNAKSNDVEKDVCVAINNEVISPVKGFGKRLSGTDVERLTSKNATKESLTSVQRKGRVKVSKAFQDPLSKGKSKKSEKTLQSNSNVVEPMNHFRSEAEEAEENLSWEKIKRKIDFDVEVTPEKKVKQQKTNAASTDSLGQKRSRSGRVLVSSLEFWRNQIPVYDMDRNLIQVKDGSETNSAPSKGKGSDSRKRRNLKIK

binding [10]: binds
B2: APC2 fused to the GAL4 activation domain (protein, UniProt Q8H1U5 1-865)
chain: T3 sequence

binding [1]: no binding
binding [2]: no binding
binding [4]: binds
binding [5]: binds
binding [6]: binds
B3: αKNL2, full length, fused to a Venus fragment (BiFC) (protein, UniProt F4KCE9 1-598)
chain: MTEPNLDEDGSKSSFQKTVVLRDWWLIKCPKEFEGKQFGVAGFEESVETRAMRVFTSSPITKALDVFTLLASDGIYITLRGFLNKERVLKNGFNPEISREFIFGFPPCWERVCNSCFEGDSFGTDVNTVPSTIEKACPPILSPCKYSNRNLKDNPAESREKSNVTETDIAEINDKGGSGARDIKTARRRSLHLQIKRILESSKVRKTANDGDHGSEFLNTAKRGDVERDGCEVINNEDSEWKLDESEVQNLCNDGDNGSEGFIKAKSSDVEKDKSEAIDNDVISPAVGSGIKHTGADNVDKVTSASATGESLTSEQQNGLLVTTASPHSLLKDLAKSSKPEKKGISKKSGKILRSDDNVVDPMNYSGTKVKSAENKRKIDASKLQSPTSNVAEHSKEGLNNAKSNDVEKDVCVAINNEVISPVKGFGKRLSGTDVERLTSKNATKESLTSVQRKGRVKVSKAFQDPLSKGKSKKSEKTLQSNSNVVEPMNHFRSEAEEAEENLSWEKIKRKIDFDVEVTPEKKVKQQKTNAASTDSLGQKRSRSGRVLVSSLEFWRNQIPVYDMDRNLIQVKDGSETNSAPSKGKGSDSRKRRNLKIK
